Target: human TrkB receptor on cells (human, UniProt Q16620 32-822)
Test: cell-based or functional assay

Sequence of UniProt Q16620 (Q16620 32-822): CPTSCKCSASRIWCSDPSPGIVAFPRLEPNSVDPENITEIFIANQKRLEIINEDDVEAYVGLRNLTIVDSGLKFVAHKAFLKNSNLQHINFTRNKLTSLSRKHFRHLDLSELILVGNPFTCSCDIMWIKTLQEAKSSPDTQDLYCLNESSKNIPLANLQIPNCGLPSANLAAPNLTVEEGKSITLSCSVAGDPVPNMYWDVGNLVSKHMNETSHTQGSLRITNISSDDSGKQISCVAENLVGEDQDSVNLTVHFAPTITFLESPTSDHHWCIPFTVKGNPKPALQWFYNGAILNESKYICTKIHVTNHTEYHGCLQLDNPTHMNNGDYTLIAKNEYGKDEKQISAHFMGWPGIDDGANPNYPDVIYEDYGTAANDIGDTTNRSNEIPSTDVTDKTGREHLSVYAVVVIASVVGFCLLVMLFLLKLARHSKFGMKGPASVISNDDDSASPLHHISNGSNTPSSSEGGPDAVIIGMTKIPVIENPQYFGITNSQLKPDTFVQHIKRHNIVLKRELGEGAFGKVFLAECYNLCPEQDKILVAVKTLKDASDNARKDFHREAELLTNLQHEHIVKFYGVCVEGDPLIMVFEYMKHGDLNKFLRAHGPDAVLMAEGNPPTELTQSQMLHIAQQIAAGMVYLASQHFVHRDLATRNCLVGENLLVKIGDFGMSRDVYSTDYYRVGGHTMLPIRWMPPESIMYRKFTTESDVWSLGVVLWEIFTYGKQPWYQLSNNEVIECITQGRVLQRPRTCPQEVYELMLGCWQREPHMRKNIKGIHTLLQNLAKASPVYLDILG

| AKT 1/2/3-P (T308), differentiated SH-SY5Y cells, EC50 | TrkB-P (TrkB phosphorylation, AlphaLISA, differentiated SH-SY5Y cells), EC50 | Binder |
| --- | --- | --- |
| 0.023 nM | 0.039 nM | 277-gr (IgG1) (antibody) heavy: QVQLVQSGAEVKKPGASVKVSCKASGYTFTGYWMHWVRQAPGQGLEWMGYINPSTDYTEYNQKFKDRVTMTRDTSTSTVYMELSSLRSEDTAVYYCARSRTGNYWGQGTLVTVSSASTKGPSVFPLAPSSKSTSGGTAALGCLVKDYFPEPVTVSWNSGALTSGVHTFPAVLQSSGLYSLSSVVTVPSSSLGTQTYICNVNHKPSNTKVDKRV[human IgG1 Fc not printed] light: DIVMTQSPDSLAVSLGERATINCKSSQSLLYSSNQKNYLAWYQQKPGQPPKLLIYWASTRESGVPDRFSGSGSGTDFTLTISSLQAEDVAVYYCQQYYSYPYTFGQGTKLEIKRTVAAPSVFIFPPSDEQLKSGTASVVCLLNNFYPREAKVQWKVDNALQSGNSQESVTEQDSKDSTYSLSSTLTLSKADYEKHKVYACEVTHQGLSSPVTKSFNRGEC |
| 0.039 nM | 0.046 nM | 277-gr (IgG1-KO) (antibody) heavy: QVQLVQSGAEVKKPGASVKVSCKASGYTFTGYWMHWVRQAPGQGLEWMGYINPSTDYTEYNQKFKDRVTMTRDTSTSTVYMELSSLRSEDTAVYYCARSRTGNYWGQGTLVTVSSASTKGPSVFPLAPSSKSTSGGTAALGCLVKDYFPEPVTVSWNSGALTSGVHTFPAVLQSSGLYSLSSVVTVPSSSLGTQTYICNVNHKPSNTKVDKRV[human IgG1 Fc with changes not printed] light: DIVMTQSPDSLAVSLGERATINCKSSQSLLYSSNQKNYLAWYQQKPGQPPKLLIYWASTRESGVPDRFSGSGSGTDFTLTISSLQAEDVAVYYCQQYYSYPYTFGQGTKLEIKRTVAAPSVFIFPPSDEQLKSGTASVVCLLNNFYPREAKVQWKVDNALQSGNSQESVTEQDSKDSTYSLSSTLTLSKADYEKHKVYACEVTHQGLSSPVTKSFNRGEC |
| 0.022 nM | 0.044 nM | 277-64 (IgG1-KO) (antibody) heavy: QVQLVQSGAEVKKPGASVKVSCKASGYTFTGYWMHWVRQAPGQGLEWIGYINPSTDYTEYNQKFKDRVTMTRDTSTSTVYMELSSLRSEDTAVYYCARSRTGNYWGQGTTVTVSSASTKGPSVFPLAPSSKSTSGGTAALGCLVKDYFPEPVTVSWNSGALTSGVHTFPAVLQSSGLYSLSSVVTVPSSSLGTQTYICNVNHKPSNTKVDKRV[human IgG1 Fc with changes not printed] light: DIVMTQSPDSLAVSLGERATISCKSSQSLLYSSNQKNYLAWYQQKPGQPPKLLIYWASTRESGVPDRFSGSGSGTDFTLTISSLQAEDVAVYYCQQYYSYPYTFGQGTKLEIKRTVAAPSVFIFPPSDEQLKSGTASVVCLLNNFYPREAKVQWKVDNALQSGNSQESVTEQDSKDSTYSLSSTLTLSKADYEKHKVYACEVTHQGLSSPVTKSFNRGEC |
| 0.025 nM | 0.053 nM | 277-64 (IgG1) (antibody) heavy: QVQLVQSGAEVKKPGASVKVSCKASGYTFTGYWMHWVRQAPGQGLEWIGYINPSTDYTEYNQKFKDRVTMTRDTSTSTVYMELSSLRSEDTAVYYCARSRTGNYWGQGTTVTVSSASTKGPSVFPLAPSSKSTSGGTAALGCLVKDYFPEPVTVSWNSGALTSGVHTFPAVLQSSGLYSLSSVVTVPSSSLGTQTYICNVNHKPSNTKVDKRV[human IgG1 Fc not printed] light: DIVMTQSPDSLAVSLGERATISCKSSQSLLYSSNQKNYLAWYQQKPGQPPKLLIYWASTRESGVPDRFSGSGSGTDFTLTISSLQAEDVAVYYCQQYYSYPYTFGQGTKLEIKRTVAAPSVFIFPPSDEQLKSGTASVVCLLNNFYPREAKVQWKVDNALQSGNSQESVTEQDSKDSTYSLSSTLTLSKADYEKHKVYACEVTHQGLSSPVTKSFNRGEC |
